55 compounds from ChEMBL document CHEMBL4888484, “Replenishing the malaria drug discovery pipeline: Screening and hit evaluation of the MMV Hit Generation Library 1 (HGL1) against asexual blood stage Plasmodium falciparum ,using a nano luciferase reporter read-out” (2022) can be followed below.

For orientation: % Inhibition means the drop in the measured response relative to a control, in per cent.

In all, about 150,000 compounds went through this assay and about 540 (0.36%) showed an effect of 50% or more. The list shows a part of the results.

The experiment concerns Plasmodium falciparum. Briefly: Primary screen in NF54 nanoGlo assay, in single point, at 2uM, 72h; a lower Z score goes with more inhibition. The following applies: timepoint 72 hour. Type of experiment: functional, Erythrocyte.
Consider `CNc1nc(-c2ccccc2)nnc1C(F)(F)F`, for which the “% Inhibition” value turned out to be 35% and the Z score is -4.55.
On the same counts, the results for `COC(=O)c1c(-c2cccc(Cl)c2)noc1Nc1cc(C)ccc1C` are -8% and 1.46.
On the same counts, the results for `CC(C)c1nc(CN(C)Cc2nnc3ccccn23)cs1` are -6% and 1.07.
On the same counts, the results for `COC[C@H]1CCCN(CC(=O)Nc2cccnn2)CC1` are -3% and 0.48.
`O=C(NC1CCS(=O)(=O)CC1)c1nc2cc(Cl)ccc2s1`: the “% Inhibition” value was -6% and the Z score stood at 1.25.
On the same counts, the results for `Cc1cc(NC(=O)c2n[nH]c3ccccc23)n(Cc2ccccn2)n1` are -16% and 1.59.
On the same counts, the results for `CCn1c(C)nnc1CN[C@H](c1ccccc1Cl)C(C)C` are -8% and 1.46.
As for `O=C(NCCN1CCCCC1)c1ccc(-c2ccc3[nH]c(CO)nc3c2)cc1`, the “% Inhibition” value was 10% and the Z score is on record as -1.24.
`O=C1CCCc2c1cnc1c2c(O)nc(=O)n1CCc1ccccc1`: the “% Inhibition” value amounted to 10% and the Z score was -1.19.
On the same counts, the results for `Cc1cccc(-c2noc(CCC(=O)N3CC[C@H](CCOc4ccccc4)C3)n2)c1` are -3% and 0.44.
Regarding `Cc1cc(NC(=O)Cc2nc(C)c(C(=O)NCc3ccccc3)s2)ccc1F`, the “% Inhibition” value was 23% and the Z score was -2.89.
As to `O=C(C[C@H]1CCCO1)Nc1ccc2oc(-c3cc(F)ccc3Br)nc2c1`, the “% Inhibition” value is -5% and the Z score is recorded as 0.68.
Turning to `CNC(=O)c1cccc(NC(=O)Nc2cccc3ccn(C)c23)n1`, the “% Inhibition” value was 15% and the Z score was -1.69.
On the same counts, the results for `COc1cccc(CNc2ccc(CS(C)(=O)=O)c(Cl)c2)n1` are -30% and 3.55.
On the same counts, the results for `Cc1nccn1CC(=O)N1CCN([C@@H](C)c2nccs2)CC1` are -14% and 2.73.
On the same counts, the results for `CCc1nnc(CN2CCC(C(=O)NCc3ccccc3)CC2)o1` are 0% and -0.03.
For `CCc1cc(C(=O)NCc2cccnc2)cs1`, the “% Inhibition” value was -20% and the Z score was found to be 1.83.
With `CC(=O)NCc1csc([C@H]2CCCN(S(=O)(=O)c3ccccc3Cl)C2)n1`, the “% Inhibition” value was -5% and the Z score came to 0.57.
As for `C#CCN(C(=O)C[C@H]1C(=O)NCCN1C1Cc2ccccc2C1)C1CCCCC1`, the “% Inhibition” value was -12% and the Z score came out at 1.75.
As for `CC1=NO[C@H](C(=O)NCc2ccc(N3CCCC3=O)cc2)C1`, the “% Inhibition” value is on record as 17% and the Z score was -2.21.
In the case of `CCOc1ccc(S(=O)(=O)N(C)C)cc1NC(=O)CCC(C)C`, the “% Inhibition” value is -10% and the Z score was 1.52.
On the same counts, the results for `Cc1ccc(C(=O)N2CCN=C2N2CCN(c3cccc(Cl)c3)CC2)cc1` are -10% and 1.66.
On the same counts, the results for `CN(CCC(=O)NC(N)=O)[C@H](c1ccc(Cl)cc1)C(F)(F)F` are -4% and 0.75.
On the same counts, the results for `CCC(CC)(CO)CN(C)C(=O)CC1CC(C)(C)NC(C)(C)C1` are 2% and -0.32.
For `COc1ccc2c(=O)c(C(=O)NCCN3CCOCC3)c[nH]c2c1`, the “% Inhibition” value worked out at 0% and the Z score is recorded as 0.04.
Consider `Cc1ccnc(-n2cc(S(=O)(=O)Nc3onc(C)c3C)cn2)c1`, for which the “% Inhibition” value was -17% and the Z score stood at 1.48.
On the same counts, the results for `CS(=O)(=O)NC[C@H]1CCCN(c2nnc(-c3ccccc3)s2)C1` are 10% and -1.59.
On the same counts, the results for `COc1ccc(NC(=O)Nc2nn(C)cc2-c2ccccc2)cc1` are -15% and 1.89.
On the same counts, the results for `CC(C)c1cc(C(=O)N2CCC(n3cc(-c4ccccn4)nn3)CC2)[nH]n1` are -8% and 1.22.
Regarding `C=CCN1CC[C@H](N(C)c2nc(C)cc(C)n2)C1=O`, the “% Inhibition” value was 20% and the Z score was -2.36.
Regarding `CC(C)CN(CCN(C)C)C(=O)c1[nH]ncc1Br`, the “% Inhibition” value is -5% and the Z score amounted to 0.6.
Turning to `Cc1cccc(C(=O)N(C)Cc2ccsc2)n1`, the “% Inhibition” value was -2% and the Z score is listed as 0.32.
On the same counts, the results for `CCC(C)n1ncc(C(=O)N2CCN(C(C)C(N)=O)CC2)c1C1CC1` (stereo not given) are -8% and 1.08.
With `COC[C@@H](N)C(=O)N1CCC2(CC1)CC(=O)N(Cc1ccc(Cl)cc1)C2`, the “% Inhibition” value is reported as -8% and the Z score is given as 1.44.
Consider `CCOC(=O)[C@]12CCCN[C@@H]1CCN(C(=O)c1ccc3c(c1)CCO3)C2`, for which the “% Inhibition” value is recorded as -14% and the Z score was 2.63.
With `C[C@@]1(C(=O)NC2CCCCC2)Oc2cccnc2NC1=O`, the “% Inhibition” value is -8% and the Z score came to 1.4.
On the same counts, the results for `CN(C)Cn1c(=S)oc2cc(S(=O)(=O)Nc3ccccc3Cl)ccc21` are -13% and 1.62.
For `Cc1cc(-c2cc(O)n(-c3ccccc3)n2)n(C)n1`, the “% Inhibition” value is reported as -39% and the Z score turned out to be 4.56.
Regarding `COc1cc(C)ccc1OCc1cncc(-c2ccc(F)c(F)c2)c1`, the “% Inhibition” value is reported as 2% and the Z score is reported as -0.3.
Consider `O=S(=O)(NCc1nc(-c2cc(C3CC3)on2)no1)N1CCOCC1`, for which the “% Inhibition” value was -11% and the Z score stood at 1.37.
Turning to `O=C(C1CC2CCC1C2)N1CCN(Cc2nnc3n2CCCCC3)CC1` (stereo not given), the “% Inhibition” value came out at 10% and the Z score is -1.32.
On the same counts, the results for `Cc1cccc(CN2CCN(C(=O)NCC3(C)COC3)[C@@H](C)C2=O)c1` are -7% and 1.38.
For the compound `CCOC(=O)CCN(CC1CC1)CN1C(=O)c2cc(Cl)c(Cl)cc2C1=O`, the “% Inhibition” value was determined as 5% and the Z score is -0.51.
Regarding `CCc1ccc(C(=O)N2CCN(CC3CCC3)C[C@H](O)C2)[nH]1`, the “% Inhibition” value is given as -12% and the Z score was determined as 1.33.
On the same counts, the results for `Cc1noc(-c2c(NC(=O)CCc3c(C)noc3C)sc3c2CCOC3)n1` are -17% and 2.61.
Turning to `Cc1cnc(C(=O)N(C)Cc2occc2C)o1`, the “% Inhibition” value was -1% and the Z score was 0.08.
Consider `O=C(NCc1nnc2n1CCOCC2)Nc1nsc2ccccc12`, for which the “% Inhibition” value is -15% and the Z score stood at 2.5.
For `Cc1ccccc1NC(=O)N1CCN(Cc2nc3ccc(Cl)cc3o2)CC1`, the “% Inhibition” value is recorded as -5% and the Z score was determined as 0.77.
As for `CCCCNC(=O)Nc1ccc(OC(C)C)nn1`, the “% Inhibition” value is -13% and the Z score was found to be 2.1.
For `Cc1ccc(CS(=O)(=O)c2nnc([C@H](Cc3ccccc3)NC(=O)OC(C)(C)C)o2)cc1`, the “% Inhibition” value was 1% and the Z score is on record as -0.06.
In the case of `O=C1CC[C@H](C(=O)N2CCOc3ccc(Br)cc3C2)N1`, the “% Inhibition” value is -1% and the Z score amounted to 0.19.
On the same counts, the results for `O=C(NCc1c[nH]nn1)[C@@H]1CCCN1c1ncnc2ccccc12` are -3% and 0.26.
For the compound `CC[C@@]1(C)Cc2ccccc2-c2[nH]c(=O)n(-c3ccc(F)cc3)c(=O)c21`, the “% Inhibition” value is -12% and the Z score was determined as 1.93.
`CC1CCCC(OCC(=O)NCCc2nnc[nH]2)C1` (stereo not given): the “% Inhibition” value is recorded as -13% and the Z score was 2.18.
On the same counts, the results for `O=C(Nc1ccccc1)c1csc(-c2ccc(OCc3ccccc3)cc2)n1` are 4% and -0.43.
